± gives the standard deviation of the averaged measurements. The full ranking holds about 33,000 sequences; the median of “E-score (dimensionless, -0.5 to 0.5)” is about -0.046, and the highest 2% start at about 0.36. The list shows a part of the results.
The sequences below were run on T1, SpTbr T-box DNA-binding domain (GST fusion) (assay: PBM E-score of 8-mer (E-score (dimensionless, -0.5 to 0.5)); Tbr is Tbrain of the sea star Patiria miniata (Pm) or the sea urchin Strongylocentrotus purpuratus (Sp); higher = stronger binding preference; most listed sequences are background and not binding sites). Details: the construct has about 5 more residues each side.
T1 sequence: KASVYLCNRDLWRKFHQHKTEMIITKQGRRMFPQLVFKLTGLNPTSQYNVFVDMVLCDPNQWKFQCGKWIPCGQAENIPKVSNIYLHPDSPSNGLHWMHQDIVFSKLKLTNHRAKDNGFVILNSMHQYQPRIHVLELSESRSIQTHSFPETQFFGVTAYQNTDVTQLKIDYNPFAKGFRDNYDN
Procedure, shortened: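 Universal Agilent oligonucleotide arrays, made double-stranded by primer extension, were incubated with 200 nM GST-fused Tbr T-box DNA-binding domain in PBS (pH 7.5). The protein was expressed in BL21 E. coli at 20 °C and purified by glutathione affinity chromatography. After scanning and quantification, the Universal PBM Analysis Suite assigned an enrichment E-score to each ungapped 8-mer, averaged over duplicate arrays.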

Row | Sequence | PBM E-score of 8-mer
1 | AACTGCAG | -0.0867 ± 0.025
2 | TAGGATCA | -0.332 ± 0.033
3 | AACGCGAG | 0.13 ± 0.021
4 | GACACTTA | 0.393 ± 0.0065
5 | GCTGCAGA | -0.00912 ± 0.096
6 | ATGTCAAA | 0.113 ± 0.037
7 | AAACACTT | 0.335 ± 0.039
8 | GCCCCGGA | -0.197 ± 0.11
9 | GCAACCCA | 0.0243 ± 0.058
10 | ACACGCAA | 0.174 ± 0.025
11 | AGTTTGAT | -0.0263 ± 0.017
12 | CAAAGTGA | 0.295 ± 0.047
13 | CAACCCCA | 0.0392 ± 0.039
14 | CAGACACC | 0.3 ± 0.028
15 | GGCAACGA | 0.085 ± 0.022
16 | ACGATACG | -0.0294 ± 0.055
17 | CGGTCTCC | -0.159 ± 0.064
18 | CGAAGGGA | 0.0616 ± 0.042
19 | CTAGTCCA | -0.134 ± 0.018
20 | CCCGACCG | -0.0137 ± 0.042
21 | GAATCGGA | 0.0666 ± 0.017
22 | CCGCAGCA | -0.0663 ± 0.01

Row | Sequence | PBM E-score of 8-mer
23 | ATTACCTG | -0.134 ± 0.052
24 | CTTTTAAA | -0.241 ± 0.039
25 | AAGGCCGT | -0.165 ± 0.092
26 | AGGCGCCG | 0.168 ± 0.026
27 | AGTGTTAC | 0.3741 ± 0.0036
28 | ACCGCATG | -0.287 ± 0.016
29 | ACGCTTGA | 0.206 ± 0.012
30 | AAATGGCA | 0.0899 ± 0.017
31 | GTAGTATA | -0.109 ± 0.025
32 | AAGGCTTA | -0.0667 ± 0.038
33 | CATGCTCG | -0.0619 ± 0.081
34 | CAAAGGGC | -0.161 ± 0.046
35 | ATGGGACG | -0.0461 ± 0.012
36 | ATGTTAAT | 0.0604 ± 0.061
37 | GAGGGACA | 0.118 ± 0.045
38 | ATTCTAAA | -0.215 ± 0.0057
39 | CCAGCCGC | -0.205 ± 0.052
40 | CCATTGAC | -0.0228 ± 0.064
41 | AGATTAAA | -0.143 ± 0.14
42 | TCCGTTCA | -0.018 ± 0.06
43 | AGAGTACG | -0.0341 ± 0.067
44 | AACGTAAT | -0.129 ± 0.0037

Row | Sequence | PBM E-score of 8-mer
45 | AGGCTCGC | 0.0433 ± 0.044
46 | CGAAGGAA | -0.0832 ± 0.033
47 | ATCGGAGC | -0.123 ± 0.085
48 | ATAAGGGA | -0.205 ± 0.015
49 | GCCCTGGA | -0.24 ± 0.0052
50 | CCCGATGC | -0.16 ± 0.065
51 | ACACAAAC | 0.108 ± 0.077
52 | ACACCAGT | 0.296 ± 0.033
53 | AGAACCCA | -0.208 ± 0.071
54 | GAGGACCA | -0.1805 ± 0.00028
55 | TATTTGGA | -0.13 ± 0.0051
56 | GGCTATGA | -0.0251 ± 0.045
57 | CATAGGAA | -0.314 ± 0.027
58 | CCCAGACA | 0.0295 ± 0.036
59 | CCACGAGA | -0.184 ± 0.043
60 | AGTCCTCC | -0.266 ± 0.019
61 | GCACTGAC | 0.0176 ± 0.026
62 | CGCGCAAC | 0.173 ± 0.066
63 | ATGGACCA | -0.214 ± 0.092
64 | AATCTAAT | -0.123 ± 0.051
65 | CGGCGGAA | -0.0399 ± 0.0019
66 | GTGTGTTA | 0.318 ± 0.021

Row | Sequence | PBM E-score of 8-mer
67 | ATCCGTGC | -0.132 ± 0.004
68 | CTAGAGTA | -0.19 ± 0.021
69 | ATCAATAG | -0.171 ± 0.053
70 | CTCCCTCA | 0.0512 ± 0.04
71 | AACCCTTC | -0.185 ± 0.03
72 | AATTCGTC | 0.0742 ± 0.012
73 | AAATGGGG | -0.142 ± 0.047
74 | CCACGTTA | 0.135 ± 0.014
75 | ATAGGACA | -0.22 ± 0.018
76 | ACTATCCA | -0.21 ± 0.023
77 | CGCTGAGC | 0.0396 ± 0.0024
78 | CCTACGAC | -0.191 ± 0.027
79 | TCGTAAAA | -0.0816 ± 0.072
80 | ACACGGCC | 0.0124 ± 0.046
81 | CCAACCAA | -0.219 ± 0.0053
82 | CAGCCCTC | -0.14 ± 0.053
83 | AGGCGGTG | -0.0537 ± 0.076
84 | ACTAGCCG | 0.07 ± 0.092
85 | CCTCTGCA | -0.1407 ± 0.00062
86 | CTATGGCA | 0.121 ± 0.042
